Measured values published in patent US11420968B2 (priority 2018, dated 2022).
Read-outs that look alike come from different tables or passages of the source.

What was measured:
RS4;11 cells = assay: cells; conditions: Homo sapiens
Molt-4 cells = assay: cells; conditions: Homo sapiens
[1] = RS4-11, 48 h, read-out: Cellular activity (IC50, nM) RS4;11
[2] = MOLT-4, read-out: Cellular activity (IC50, nM) Molt-4
[3] = RS4-11, 48 h, read-out: Cellular activity (IC50, nM) RS4, 11

Compound | IC50 (Molt-4 cells; [2]) [nM] | IC50 (RS4;11 cells; [3]) [nM] | also measured
O=C(NS(=O)(=O)c1ccc(NCC2CCOCC2)c([N+](=O)[O-])c1)c1ccc([C@H]2CC[C@H](N3CC(N4CCCC4c4ccccc4C4CC4)C3)CC2)cc1Oc1cnc2[nH]ccc2c1 (relative stereo) [Example D107b, 2-((1H-pyrrolo[2,3-b]pyridin-5-yl)oxy)-4-(trans-4-(3-(2-(2-cyclopropylphenyl)pyrrolidin-1-yl)azetidin-1-yl)cyclohexyl)-N-((3-nitro-4-(((tetrahydro-2H-pyran-4-yl)methyl)amino)phenyl)sulfonyl)benzamide] | > 10000 | – | IC50 (RS4;11 cells; [1]): 187 nM
O=C(NS(=O)(=O)c1ccc(NCC2CCOCC2)c([N+](=O)[O-])c1)c1ccc(-c2ccc(N3C[C@@H](F)C[C@@H]3c3ccccc3C3CC3)cc2)cc1Oc1cnc2[nH]ccc2c1 (single isomer, unassigned) [Example A145a, 3-((1H-pyrrolo[2,3-b]pyridin-5-yl)oxy)-4′-((2R,4S) or (2S,4R)-2-(2-cyclopropylphenyl)-4-fluoropyrrolidin-1-yl)-N-((3-nitro-4-(((tetrahydro-2H-pyran-4-yl)methyl)amino)phenyl)sulfonyl)-[1,1′-biphenyl]-4-carboxamide] | 5960 | – | IC50 (RS4;11 cells; [1]): 79 nM
O=C(NS(=O)(=O)c1ccc(NCC2CCOCC2)c([N+](=O)[O-])c1)c1ccc(-c2ccc(N3C[C@H](F)C[C@H]3c3ccccc3C3CC3)cc2)cc1Oc1cnc2[nH]ccc2c1 (single isomer, unassigned) [Example A145b, 3-((1H-pyrrolo[2,3-b]pyridin-5-yl)oxy)-4′-((2S,4R) or (2R,4S)-2-(2-cyclopropylphenyl)-4-fluoropyrrolidin-1-yl)-N-((3-nitro-4-(((tetrahydro-2H-pyran-4-yl)methyl)amino)phenyl)sulfonyl)-[1,1′-biphenyl]-4-carboxamide] | 3490 | – | IC50 (RS4;11 cells; [1]): 36 nM
O=C(NS(=O)(=O)c1ccc(NCC2CCOCC2)c([N+](=O)[O-])c1)c1ccc(-c2ccc(N3C[C@H](F)C[C@@H]3c3ccccc3C3CC3)cc2)cc1Oc1cnc2[nH]ccc2c1 (single isomer, unassigned) [Example A145c, 3-((1H-pyrrolo[2,3-b]pyridin-5-yl)oxy)-4′-((2R,4R) or (2S,4S)-2-(2-cyclopropylphenyl)-4-fluoropyrrolidin-1-yl)-N-((3-nitro-4-(((tetrahydro-2H-pyran-4-yl)methyl)amino)phenyl)sulfonyl)-[1,1′-biphenyl]-4-carboxamide] | 782 | – | IC50 (RS4;11 cells; [1]): 6.8 nM
O=C(NS(=O)(=O)c1ccc(NCC2CCOCC2)c([N+](=O)[O-])c1)c1ccc(-c2ccc(N3CCCCCC3c3ccccc3)cc2)cc1Oc1cnc2[nH]ccc2c1 (stereo not drawn) [Example A15, 3-((1H-pyrrolo[2,3-b]pyridin-5-yl)oxy)-N-((3-nitro-4-(((tetrahydro-2H-pyran-4-yl)methyl)amino)phenyl)sulfonyl)-4′-(2-phenylazepan-1-yl)-[1,1′-biphenyl]-4-carboxamide] | – | 200 | –
O=C(NS(=O)(=O)c1ccc(NCC2CCOCC2)c([N+](=O)[O-])c1)c1ccc(-c2ccc(C3CCCN3c3ccccc3[N+](=O)[O-])cc2)cc1Oc1cnc2[nH]ccc2c1 (stereo not drawn) [Example A63, 3-((1H-pyrrolo[2,3-b]pyridin-5-yl)oxy)-N-((3-nitro-4-(((tetrahydro-2H-pyran-4-yl)methyl)amino)phenyl)sulfonyl)-4′-(1-(2-nitrophenyl)pyrrolidin-2-yl)-[1,1′-biphenyl]-4-carboxamide] | – | 328 | –
O=C(NS(=O)(=O)c1ccc(NCC2CCOCC2)c([N+](=O)[O-])c1)c1ccc(C2=CCC(N3CCCC3c3cccc(C4CC4)c3)CC2)cc1Oc1cnc2[nH]ccc2c1 (stereo not drawn) [Example C4, 3-((1H-pyrrolo[2,3-b]pyridin-5-yl)oxy)-4′-(2-(3-cyclopropylphenyl)pyrrolidin-1-yl)-N-((3-nitro-4-(((tetrahydro-2H-pyran-4-yl)methyl)amino)phenyl)sulfonyl)-2′,3′,4′,5′-tetrahydro-[1,1′-biphenyl]-4-carboxamide] | – | 112 | IC50 (RS4;11 cells; RS4-11, read-out: Cellular activity (IC50, nM) RS4, 11): 112 nM
O=C(NS(=O)(=O)c1ccc(NCC2CCOCC2)c([N+](=O)[O-])c1)c1ccc(C2=CCC(N3CCCC3c3ccccc3Cc3ccccc3)CC2)cc1Oc1cnc2[nH]ccc2c1 (stereo not drawn) [Example C16, 3-((1H-pyrrolo[2,3-b]pyridin-5-yl)oxy)-4′-(2-(2-benzylphenyl)pyrrolidin-1-yl)-N-((3-nitro-4-(((tetrahydro-2H-pyran-4-yl)methyl)amino)phenyl)sulfonyl)-2′,3′,4′,5′-tetrahydro-[1,1-biphenyl]-4-carboxamide] | – | 435 | –
O=C(NS(=O)(=O)c1ccc(NCC2CCOCC2)c([N+](=O)[O-])c1)c1ccc(C2=CCC(N3CCCC3c3cc(F)ccc3C3CC3)CC2)cc1Oc1cnc2[nH]ccc2c1 (stereo not drawn) [Example C54, 3-((1H-pyrrolo[2,3-b]pyridin-5-yl)oxy)-4′-(2-(2-cyclopropyl-5-fluorophenyl)pyrrolidin-1-yl)-N-((3-nitro-4-(((tetrahydro-2H-pyran-4-yl)methyl)amino)phenyl)sulfonyl)-2′,3′,4′,5′-tetrahydro-[1,1′-biphenyl]-4-carboxamide] | – | 185 | –
O=C(NS(=O)(=O)c1ccc(NCC2CCOCC2)c([N+](=O)[O-])c1)c1ccc(C2=CCC(N3CCCC3C3CCCCC3)CC2)cc1Oc1cnc2[nH]ccc2c1 (stereo not drawn) [Example C60, 3-((1H-pyrrolo[2,3-b]pyridin-5-yl)oxy)-4′-(2-cyclohexylpyrrolidin-1-yl)-N-((3-nitro-4-(((tetrahydro-2H-pyran-4-yl)methyl)amino)phenyl)sulfonyl)-2′,3′,4′,5′-tetrahydro-[1,1′-biphenyl]-4-carboxamide] | – | 107 | –
O=C(NS(=O)(=O)c1ccc(NCC2CCOCC2)c([N+](=O)[O-])c1)c1ccc(C2=CCC(N3Cc4ccccc4C3c3ccccc3C3CC3)CC2)cc1Oc1cnc2[nH]ccc2c1 (stereo not drawn) [Example C86, 3-((1H-pyrrolo[2,3-b]pyridin-5-yl)oxy)-4′-(1-(2-cyclopropylphenyl)isoindolin-2-yl)-N-((3-nitro-4-(((tetrahydro-2H-pyran-4-yl)methyl)amino)phenyl)sulfonyl)-2′,3′,4′,5′-tetrahydro-[1,1′-biphenyl]-4-carboxamide] | – | 748 | –
O=C(NS(=O)(=O)c1ccc(NCC2CCOCC2)c([N+](=O)[O-])c1)c1ccc(C2=CCC(N3CCCC3Cc3ccccc3C3CC3)CC2)cc1Oc1cnc2[nH]ccc2c1 (stereo not drawn) [Example C118, 3-((1H-pyrrolo[2,3-b]pyridin-5-yl)oxy)-4′-(2-(2-cyclopropylbenzyl)pyrrolidin-1-yl)-N-((3-nitro-4-(((tetrahydro-2H-pyran-4-yl)methyl)amino)phenyl)sulfonyl)-2′,3′,4′,5′-tetrahydro-[1,1′-biphenyl]-4-carboxamide] | – | 339 | –
CC1CCN(C2CC=C(c3ccc(C(=O)NS(=O)(=O)c4ccc(NCC5CCOCC5)c([N+](=O)[O-])c4)c(Oc4cnc5[nH]ccc5c4)c3)CC2)C1c1ccccc1C1CC1 (stereo not drawn) [Example C141, 3-((1H-pyrrolo[2,3-b]pyridin-5-yl)oxy)-4′-(2-(2-cyclopropylphenyl)-3-methylpyrrolidin-1-yl)-N-((3-nitro-4-(((tetrahydro-2H-pyran-4-yl)methyl)amino)phenyl)sulfonyl)-2′,3′,4′,5′-tetrahydro-[1,1′-biphenyl]-4-carboxamide] | – | 94 | –
O=C(NS(=O)(=O)c1ccc(NCC2CCOCC2)c([N+](=O)[O-])c1)c1ccc(C2CCC(N3CCCC3C=Cc3ccccc3)CC2)cc1Oc1cnc2[nH]ccc2c1 (stereo not drawn) [Example D102, 2-((1H-pyrrolo[2,3-b]pyridin-5-yl)oxy)-N-((3-nitro-4-(((tetrahydro-2H-pyran-4-yl)methyl)amino)phenyl)sulfonyl)-4-(4-(2-styrylpyrrolidin-1-yl)cyclohexyl)benzamide] | – | 1040 | –
O=C(NS(=O)(=O)c1ccc(OCC2(F)CCN(C3COC3)CC2)c([N+](=O)[O-])c1)c1ccc(-c2ccc(N3CCC[C@H]3c3ccccc3C3CC3)cc2)cc1Oc1cnc2[nH]ccc2c1 [Example G97-S, (S)-3-((1H-pyrrolo[2,3-b]pyridin-5-yl)oxy)-4′-(2-(2-cyclopropylphenyl)pyrrolidin-1-yl)-N-((4-((4-fluoro-1-(oxetan-3-yl)piperidin-4-yl)methoxy)-3-nitrophenyl)sulfonyl)-[1,1′-biphenyl]-4-carboxamide] | 3030 | – | –
CC(C)c1ccccc1[C@@H]1CCCN1c1ccc(-c2ccc(C(=O)NS(=O)(=O)c3ccc(OCC4(F)CCN(C5COC5)CC4)c([N+](=O)[O-])c3)c(Oc3cnc4[nH]ccc4c3)c2)cc1 [Example G105, (S)-3-((1H-pyrrolo[2,3-b]pyridin-5-yl)oxy)-N-((4-((4-fluoro-1-(oxetan-3-yl)piperidin-4-yl)methoxy)-3-nitrophenyl)sulfonyl)-4′-(2-(2-isopropylphenyl)pyrrolidin-1-yl)-[1,1′-biphenyl]-4-carboxamide] | 2670 | – | –
CN1CCC(c2ccccc2[C@H]2CCCN2c2ccc(-c3ccc(C(=O)NS(=O)(=O)c4ccc(NC[C@H]5CC[C@](C)(O)CC5)c([N+](=O)[O-])c4)c(Oc4cnc5[nH]ccc5c4)c3)cc2)CC1 [Example G122, 3-((1H-pyrrolo[2,3-b]pyridin-5-yl)oxy)-N-((4-((((1r,4r)-4-hydroxy-4-methylcyclohexyl)methyl)amino)-3-nitrophenyl)sulfonyl)-4′-((R)-2-(2-(1-methylpiperidin-4-yl)phenyl)pyrrolidin-1-yl)-[1,1′-biphenyl]4-carboxamide] | > 10000 | – | IC50 (Molt-4 cells; MOLT-4, read-out: Celluclar activity (IC50, nM) Molt-4): > 10000 nM
CN(C)CCC(=O)N1CCC(c2ccccc2[C@H]2CCCN2c2ccc(-c3ccc(C(=O)NS(=O)(=O)c4ccc(NC[C@H]5CC[C@](C)(O)CC5)c([N+](=O)[O-])c4)c(Oc4cnc5[nH]ccc5c4)c3)cc2)CC1 [Example G126, 3-((1H-pyrrolo[2,3-b]pyridin-5-yl)oxy)-4′-((R)-2-(2-(1-(3-(dimethylamino)propanoyl)piperidin-4-yl)phenyl)pyrrolidin-1-yl)-N-((4-((((1r,4r)-4-hydroxy-4-methylcyclohexyl)methyl)amino)-3-nitrophenyl)sulfonyl)-[1,1′-biphenyl]-4-carboxamide] | > 10000 | – | –
